# Experimental data taken from PubChem BioAssay AID686970 (National Center for Advancing Translational Sciences (NCATS), 2013).
# The campaign covered roughly 360,000 compounds. About 6,000 (1.7%) were called active. Inconclusive results, whose numbers are uncertain, are shown with a selection of clear calls. Calls follow the shape of the dose curve; as a rule, active = well fitted cell-killing curve with a large enough effect; inconclusive = small, poorly fitted or top-dose-only effect, or effect the other way; inactive = flat fitted curve, though single readings scatter. No potency is given beside an inconclusive call; the fits are too rough.
# Test: qHTS for induction of synthetic lethality in tumor cells producing 2HG: qHTS for the HT-1080-NT fibrosarcoma cell line;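 also: NT is the 2HG producing partner of a matched IDH1 knockdown line; nearly all actives have a fitted effect of over 55% in size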;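 as to activity, negative = less viability: 0% = DMSO-treated cells and -100% = media-only wells without cells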
# Details: HT-1080-NT fibrosarcoma viability, CellTiter-Glo ATP luminescence, 48 h; activity, negative = less viability: at 46.1 µM (top of the series) unless noted
# In short: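 Viability by CellTiter-Glo luminescence after 48 h compound exposure at 37C of HT-1080-NT cells (750/well, RPMI, 5% FBS). % activity scaled between DMSO wells and medium-only wells, then curve-fitted and categorized by curve class.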
# Potency is read from the fitted curve at half-maximal effect; tags tell the direction and shape of the fitted curve.
Structure (SMILES),"activity, negative = less viability",Potency
CN(C)S(=O)(=O)c1ccc(SCC(=O)Nc2ccc3c(c2)OCCO3)nc1,inactive: 3.21%,
CCc1ccc(O)c(N=Cc2cccc(C)c2O)c1,,"inconclusive [cytotoxic, partial curve]"
O=C(NCc1ccc(F)cc1)C1(S(=O)(=O)c2ccc(Cl)cc2)CC1,inactive: -4.74%,
O=C(Nc1ccncc1)C1CCN(S(=O)(=O)c2cccc(C(F)(F)F)c2)CC1,inactive: -3.98%,
Cc1cc2cc3c(=O)[nH]c(=O)cc-3n(CC(O)C(O)C(O)CO)c2cc1C (configuration not stated),inactive: -7.56%,
CN1CCN(c2ccc(-c3ccc4ccccc4n3)cc2)CC1,,"inconclusive [cytotoxic, partial curve]"
Cc1c(C(=O)NCc2ccc([N+](=O)[O-])cc2)sc(=O)n1Cc1ccc2c(c1)OCO2,,"inconclusive [cytotoxic, single point]"
CC(C)(C)NS(=O)(=O)c1ccc2nc(NC(=O)Cc3cccs3)sc2c1,,"inconclusive [cytotoxic, partial curve]"
CCOc1cccc(NC(=O)c2cccc(F)c2)c1,inactive: -0.24%,
O=C(CSc1nc(-c2ccccc2)c(-c2ccccc2)[nH]1)Nc1nccs1,,"inconclusive [cytotoxic, single point]"
COc1ccc(N2CCN(C(=O)COC(=O)c3oc4ccc(OC)cc4c3C)CC2)cc1,inactive: -0.27%,
CCOc1ccc2nc(NC(=O)c3ccoc3C)sc2c1,,active: 2.31 µM
C1=Nc2c(Nc3ccccc3)ncnc2Oc2ccccc21,,"inconclusive [cytotoxic, single point]"
Cc1ccc(Cc2c(-c3ccc(Cl)cc3)nc3c4ccccc4ccn23)cc1,inactive: -19%,
c1cc(-c2nsc(-c3ccncc3)n2)ccn1,,"inconclusive [rising, single point]"
N#Cc1ccc(-c2ccccc2)nc1SCC(=O)c1cc2ccccc2oc1=O,,"inconclusive [cytotoxic, single point]"
O=C(Nc1ccccc1N(C(=O)c1ccco1)S(=O)(=O)c1cccs1)c1ccco1,,"inconclusive [cytotoxic, single point]"
CC(=O)NC(c1cccc(F)c1)c1nc(-c2cc(F)cc(Cl)c2)cs1 (configuration not stated),inactive: -18.3%,
Cc1cc(C)n2nc(CNS(=O)(=O)c3ccc([N+](=O)[O-])cc3)nc2n1,inconclusive: 10.7%,
COc1ccccc1N1CCN(S(=O)(=O)c2ccc(-n3cnnn3)cc2)CC1,inactive: 0.333%,
COCCNC(=O)C1(C)CCCN(C(=O)c2ccc(-c3ccccc3)cc2)C1 (configuration not stated),inactive: 6.63%,
O=C(Cn1cc(COc2cccc([N+](=O)[O-])c2)nn1)c1ccc(O)cc1,,"inconclusive [cytotoxic, single point]"
COc1ccccc1S(=O)(=O)Cc1ccc(C(=O)NC2CC2)o1,inactive: 2.84%,
COc1ccccc1-c1nc(-c2ccccc2)nc(N2CCN(C)CC2)c1C#N,,active: 16.4 µM

Structure (SMILES),"activity, negative = less viability",Potency
O=C(NCCCN1CCCC1=O)c1ccc(Cl)c(NS(=O)(=O)c2ccc(F)cc2)c1,inactive: 2.94%,
COc1ccc(CC(N)c2csc(NC(=O)Nc3cc(OC)ccc3OC)n2)cc1 (configuration not stated),,"inconclusive [cytotoxic, single point]"
CCCCCCn1c(=O)n2n(c1=O)C[C@]1(OC(=O)NCc3ccccc3F)CN(S(=O)(=O)c3ccc(C)cc3)C[C@]1(O)C2,,"inconclusive [cytotoxic, single point]"
C=CCNc1nc(NCCOc2ccccc2Cl)c2sc(-c3ccccc3)cc2n1,,active: 18.4 µM
CC(Oc1ccc(F)cc1)C(=O)N(CCC1=CCCCC1)c1c(N)n(Cc2ccccc2)c(=O)[nH]c1=O (configuration not stated),,"inconclusive [cytotoxic, single point]"
O=c1oc2ccccc2c(O)c1Sc1c(O)c2ccccc2oc1=O,,"inconclusive [cytotoxic, single point]"
Cc1occc1C(=O)NC1CCCN(Cc2ccc(CC(C)C)cc2)C1 (configuration not stated),,"inconclusive [cytotoxic, single point]"
CC(C)=NNc1nc2c(c(=O)[nH]c(=O)n2C)n1CCc1ccccc1,inactive: 4.1%,
O=[N+]([O-])c1ccccc1N/N=C/c1cccc(O)c1O,,"inconclusive [cytotoxic, single point]"
Cc1cc(C)c(-c2csc(NC(=O)CCCc3nc4ccccc4c(=O)[nH]3)n2)c(C)c1,,"inconclusive [cytotoxic, single point]"
O=C(/C=C/c1cn(-c2ccccc2)nc1-c1ccccc1)Nc1ccc(C(=O)O)cc1,,"inconclusive [cytotoxic, partial curve, poor fit]"
Cc1cc(C(=O)c2ccccc2)c(NC(=O)CCl)s1,,"inconclusive [cytotoxic, single point]"
CC(=O)c1ccc(N2CCN(c3ccc(S(=O)(=O)NCCN(C)C)cc3[N+](=O)[O-])CC2)cc1,inactive: -0.0874%,
CC(=NNC(=S)Nc1cccc(C)c1)c1ccccn1,inactive: -13.6%,
CC(=O)C1=CCC(c2ccc(Cl)c(Cl)c2)N(S(=O)(=O)c2ccc(C)cc2)C1 (configuration not stated),,"inconclusive [cytotoxic, single point]"
O=C1C=CC(=O)N1,,"inconclusive [cytotoxic, single point]"
CCOC(=O)c1csc(N/N=C2\CCc3ccccc32)n1,inactive: -3.48%,
O=C(N/N=C/c1c[nH]c2ccccc12)c1cc(Br)ccc1O,,"inconclusive [cytotoxic, single point]"
CN(C)S(=O)(=O)c1ccc(N2CCCC2)c(C(=O)NCC2COc3ccccc3O2)c1 (configuration not stated),inactive: -3.9%,
CCn1cc(/C=C/c2cc[n+](C)cc2)c2ccccc21,,"inconclusive [cytotoxic, single point]"
O=[N+]([O-])c1ccc(Sc2cccc3cccnc23)c([N+](=O)[O-])c1,inconclusive: -19.9% [cytotoxic],
Cc1cc(F)cc(-c2cc(C(=O)NCc3ccccn3)[nH]n2)c1,inconclusive: 15.2%,
Cc1ccc(C)c(S(=O)(=O)N2CCCOC2CNC(=O)C(=O)NCc2ccco2)c1 (configuration not stated),inactive: -8.68%,
